Data published in the supplement of paper PMC11417369.
± gives the standard deviation of the averaged measurements. This is one part of the list.

The sequences below were run on PfAP2-LT AP2 domain (GST-tagged) (assay: gcPBM binding intensity (ln(normalized median fluorescence intensity)); higher = stronger DNA binding).
Summary of the method: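 Using an Agilent 4 × 180k array, primer-extended double-stranded 36-bp intergenic genomic probes and negative controls were exposed for 1 h to GST-fused P. falciparum DNA-binding domains expressed in E. coli. Binding was carried out in 1× PBS with 1% milk, 0.2 mg/ml BSA, 0.5% salmon testes DNA and 0.03% Triton X-100, and protein was detected with Alexa488 anti-GST antibody and a 488 nm scan. Binding intensity is the highest Masliner-normalised natural-log median intensity across replicate spots of either probe orientation.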

Sequence | gcPBM binding intensity (ln)
TTTTTTGGGTAAAATTATAAAATATGTATATATAAA [CACACA_negctrl_site27] | 8.07 ± 0.48
TTTTTTTTTGTATTTTCACACATTTTTTTTTTTTTT [CACACA_site5407] | 8.79 ± 0.67
TTATTTAAACAAATCACACACAAATATATATACATA [CACACA_site2019] | 9.05 ± 0.33
ATATGCATAAAAAGAGGTACACATAAAATATATATA [XGTACX_site5864] | 9.06 ± 0.53
TATACACATATATAAAGTACATATATGTGTAAAAAA [XGTACX_site8582] | 8.99 ± 0.44
TCTTCCGCTTTATGGAGTACTATGGTAGCCTTTCCT [XGTACX_site2958] | 8.71 ± 0.54
GACCTACAAAAAGGCACACATATACGCATACATACA [CACACA_site2179] | 9.14 ± 0.4
CATATTTTCAAAATTAGTACATAAAAAAAAAAATAT [XGTACX_site3101] | 8.62 ± 0.42
TATAATCATATATACACACACATATATATATATATA [CACACA_site2168] | 9.805 ± 0.05
TAAATTTGTGTTATTAAAAAAATGGTTTAAAAATGT [XGTACX_negctrl_site352] | 8.38 ± 0.42
TCTTTTTCATCTTTCAACAAAAAATAATATATGTGT [CACACA_negctrl_site866] | 8.66 ± 0.55
TTAGTCCATATTTTTGCACACCATTTTTTTTTTTTT [CACACA_site3927] | 9.15 ± 0.56
AGAATAAATATGCACACATGCATATATTTTTACACT [TGCATGCA_site893] | 9.01 ± 0.32
ATCCTTAATATGAACACACAAATATATTGCACATAT [CACACA_site6230] | 9.18 ± 0.39
ATATATTTATATTGTACACACATTTATGCATATATA [CACACA_site7502] | 9.21 ± 0.35
AAATATACAATATTCACACAAAAAAATACATTACAA [CACACA_site5004] | 8.92 ± 0.48
TTTCTTACAAAAGCTAGAGTTTTTTTTTTTTTTTTT [XGTACX_negctrl_site341] | 8.4 ± 0.14
TGTTTTTATAAAATAAATAAATATATATATATATAT [CACACA_negctrl_site502] | 8.71 ± 0.33
ATAAACAAACATAAATCTGATTTTAATTTTTTTAAG [CACACA_negctrl_site313] | 8.26 ± 0.48
TTTATTATTTTAACGTGTACAAGGTATATAATATTC [XGTACX_site5241] | 8.68 ± 0.42
TAGGTAAATGCAAATTGGTTTAAATCAAAATATAAA [XGTACX_negctrl_site250] | 8.62 ± 0.47
GTATCAAAAGAATACACACACACATACAGATATATA [CACACA_site5975] | 9.86 ± 0.18

Sequence | gcPBM binding intensity (ln)
TGATATTATATATATACACACATGTATGTATTTATA [CACACA_site4874] | 9.01 ± 0.33
AAAAATAAAAAATATAAAAATATAAAAATATAAAAA [XGTACX_negctrl_site51] | 8.57 ± 0.67
TTATATTTTCTCCGCGTGCACATATGTATACTATAC | 9.2 ± 0.34
TAGGGTAGTTATAATTGTACTTTTCTCCAAAAAAAA [XGTACX_site7321] | 8.31 ± 0.5
TTTTTGTTTTTTTGTTTATCGTTCGTGACTACATGA [TGCATGCA_negctrl_site124] | 8.75 ± 0.62
GAAATCTAAATAGAAACACACATATATATATATATA [CACACA_site3863] | 9.715 ± 0.035
AAAAGAAATAAGGATACACACTATTGATAAAAGTAG [CACACA_site4309] | 8.96 ± 0.52
TATATTATCAAAATGGTGCAATAATTTCTATATTAT [GTGCAC_site9772] | 8.46 ± 0.47
TCGTGGGAAAATATTACACACATTTACTATAGTATC [CACACA_site5836] | 9.14 ± 0.35
TATTACAAATAATACCGTACACAAATGTTTTTTTAT [XGTACX_site7977] | 8.63 ± 0.35
CTTGGGAAGTATTCAGTGCAAAATATAAGCAGGTCA [GTGCAC_site9758] | 8.94 ± 0.63
TGGATAATCAAAAATTGTACAAGTGTTGTTATTGGT [XGTACX_site8010] | 8.81 ± 0.4
ACCGGTGGAACGTTTTGTACATATATAATAATATAT [XGTACX_site2143] | 8.92 ± 0.4
ATATATATATTGAAAAGTACATATATATATATATTA [XGTACX_site1560] | 8.72 ± 0.31
TACATAAATACATACATACACACATATATATATATA [CACACA_site2105] | 9.77 ± 0.24
TTTTTTTTTATATATACACACAATAAATAAATATAA [CACACA_site2954] | 8.32 ± 0.44
GGTTAAAAAAAGCATACACACTATCCTCTTTGCTCT [CACACA_site7246] | 9.07 ± 0.44
CTTTTTTATTTTTCAACACACATAATAAATTTCTAT [CACACA_site1037] | 8.78 ± 0.49
GAACCTTTAAAATACACACCCAAATCCTTTGAAATA [CACACA_site3630] | 8.88 ± 0.42
ATATTTTACAAATGCACACATAATTTTTTTTTTTTT [CACACA_site2763] | 8.8 ± 0.46
TAAATAAAATACAAATGTACATAAATAATAAATATA [XGTACX_site1813] | 8.87 ± 0.45
ATATAAAAAATATAAGGTACACATATATGTAGATAT [XGTACX_site6792] | 9.24 ± 0.41

Sequence | gcPBM binding intensity (ln)
AATTATTTTAAATATTGTACTATTACAGAATGGTGT [XGTACX_site5693] | 8.78 ± 0.44
AGCAGACACCAACACACACACATATATATATATATA [CACACA_site337] | 10.4 ± 0.13
CTCTAATTAATATTTGTACACACATATTTAACCTAC [CACACA_site9043] | 9.13 ± 0.43
TCAAATTACGTAAGAACATGCGATATAAGAAATACG [TGCATGCA_site691] | 8.95 ± 0.39
TAACTTTATTTTCCTGTACACACATTTGACATATTA [CACACA_site9116] | 9.14 ± 0.34
TATATATTAATCAAAGTGCAATAATAAAATAAAAGT [GTGCAC_site9490] | 9.05 ± 0.38
TTTATACAAAAGAACAGTACAATAAAGGATTTATGA [XGTACX_site811] | 8.67 ± 0.47
AATAAAATATAAACATTATATATATATATATATATA [GTGCAC_negctrl_site58] | 9.21 ± 0.2
ATTTTTTCTTTTTTTTTTCCGTTTTTTTGGACATTT [CACACA_negctrl_site1174] | 8.72 ± 0.45
TAAAGGAGCCTATGAACACACACATGTACTTATATT [CACACA_site9351] | 9.26 ± 0.38
AATTGTTTGTTTGGGTGTACATGGTTCTATATAAAT [XGTACX_site7940] | 9.11 ± 0.4
ATAAAAAATAAATAAGGTACAGAACATTTATACATT [XGTACX_site1783] | 8.92 ± 0.47
AAATTAAACAATAAATGTACATATATATTTGTATAT [XGTACX_site1092] | 8.82 ± 0.49
AACAAGGTATTAGGGTGTACTATATATATTTATATT [XGTACX_site7776] | 8.85 ± 0.33
TTTATTACCATATTTTGTACACACATCTTTATCTCA [XGTACX_site6842] | 9.53 ± 0.63
CTTTTATTGCTCTATATGCACACCTTAATTCTTCAT [CACACA_site2195] | 9.2 ± 0.52
GCAAAATTTCCTAAGGTGCTTTTATTTTACACCGTT [GTGCAC_site9923] | 8.94 ± 0.38
AATGGGTTAGCACATACACACCAATATATTATAGAT [CACACA_site7444] | 9.09 ± 0.48
AAAACCTAAAAGTCTTAAATTTTAAATATACCTACA [GTGCAC_negctrl_site492] | 8.51 ± 0.41
TAATTTGAACGGTACAGTACTCTTTTTCTTTTTCAT [XGTACX_site5534] | 8.76 ± 0.47
ATATATTTTTTCAATTGTACGTTTTAATAATATTTA [XGTACX_site2130] | 8.73 ± 0.41
AATACAACATAATGAAGTACTGTATTTTATATTACT [XGTACX_site4885] | 8.84 ± 0.49

Sequence | gcPBM binding intensity (ln)
TTTCTTTGAATAAATACACACGAGAAATGAAAGTAG [CACACA_site8490] | 8.84 ± 0.43
ATGAAATCTTTAGAATATAGATGATGTTATTTAATT [XGTACX_negctrl_site511] | 8.38 ± 0.38
ACTCTATACATCTAATGTACATGGAAAAAAAAATTC [XGTACX_site733] | 8.69 ± 0.38
ACATTGACATGTCGAAGTACTCAAGAAGCATACAAT [XGTACX_site3948] | 9.02 ± 0.47
ATATAAATGATATGTACACACATTTATATTTATAAA [CACACA_site7600] | 8.87 ± 0.42
ATTAAAATGGTATGTGCGCACATAATATATATATGT [GTGCAC_site9572] | 9.45 ± 0.4
TGGAAAATTATTAACACACACATATAAATATATATA [CACACA_site46] | 9.17 ± 0.35
GTAATAAGAATTATAGTGCAATGTAATACATTTATA | 8.72 ± 0.45
TTCTTACATAAAATATCACACACATAAAAAAACAAT [CACACA_site8576] | 9.17 ± 0.34
ACAGTATCTGGTAGCTGTACGAGTCGTAGAGTGTAG [XGTACX_site2011] | 9.09 ± 0.44
AAAATATAAAGTATTTGTACATAATATATTTTTAAA [XGTACX_site3494] | 8.49 ± 0.57
TTCATTAATGTGTAATGTACTTGTAATATGGGATTA [XGTACX_site3903] | 8.65 ± 0.34
AATATATAAATAAATATATAAATAAATAATTGAAGC [CACACA_negctrl_site348] | 8.97 ± 0.47
CATTTTTTAATAATAGCACACAGGACATACAAAACA [CACACA_site1245] | 9.02 ± 0.33
TATATATATTTATATGCATGTAATATATTTGTATTG [TGCATGCA_site323] | 8.8 ± 0.38
TGTTCTCTTCTTTTTTATTTTCCAAAGTAATAAGTT [TGCATGCA_negctrl_site424] | 8.47 ± 0.55
AATTATTTTATGAAAAGTACACATTGTTTTAATTCT [XGTACX_site4506] | 8.61 ± 0.49
TAAATAAGTATTACTAGTACACACAAGTTGTTAATC [XGTACX_site7074] | 8.93 ± 0.42
AGAAAAAAGAGGGATACACACAAACATATATATATA [CACACA_site5269] | 9.79 ± 0.44
TTAATTATAATTATATGTACGAACTTTTTTTTTTTT [XGTACX_site6586] | 8.43 ± 0.55
CATAAATCAGCCATAACACACATACATAAATACATA [CACACA_site4380] | 9.36 ± 0.46
AAATTGATTATAAATTGTACAAGAACATACAACCTT [XGTACX_site5986] | 8.77 ± 0.33
